# What was measured:
# Cytochrome P450 1A2 = molecular target: T1, Cytochrome P450 1A2 (Homo sapiens, UniProt P05177); test: Inhibition of CYP1A2 in human liver microsomes using phenacetin as substrate preincubated for 5 mins followed by NADPH-generating system addition and measured after 20 mins by LC-MS/MS analysis
# T1 sequence (P05177 whole entry): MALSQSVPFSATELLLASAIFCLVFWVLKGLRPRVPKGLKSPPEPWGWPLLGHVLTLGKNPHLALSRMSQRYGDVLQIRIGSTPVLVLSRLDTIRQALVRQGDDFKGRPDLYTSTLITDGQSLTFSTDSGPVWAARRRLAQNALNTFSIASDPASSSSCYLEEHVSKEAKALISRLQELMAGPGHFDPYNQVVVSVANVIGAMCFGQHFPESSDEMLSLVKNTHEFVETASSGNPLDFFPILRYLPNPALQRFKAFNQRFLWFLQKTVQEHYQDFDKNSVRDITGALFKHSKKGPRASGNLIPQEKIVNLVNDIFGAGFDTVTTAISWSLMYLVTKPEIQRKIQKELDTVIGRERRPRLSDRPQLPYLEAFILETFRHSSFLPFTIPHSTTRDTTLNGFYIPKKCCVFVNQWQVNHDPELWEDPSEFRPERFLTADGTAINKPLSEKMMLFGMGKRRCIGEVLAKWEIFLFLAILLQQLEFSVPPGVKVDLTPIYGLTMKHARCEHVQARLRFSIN
# Cytochrome P450 2B6 = molecular target: T2, Cytochrome P450 2B6 (Homo sapiens, UniProt P20813); test: Inhibition of CYP2B6 in human liver microsomes using bupropion as substrate preincubated for 5 mins followed by NADPH-generating system addition and measured after 20 mins by LC-MS/MS analysis
# T2 sequence (P20813 whole entry): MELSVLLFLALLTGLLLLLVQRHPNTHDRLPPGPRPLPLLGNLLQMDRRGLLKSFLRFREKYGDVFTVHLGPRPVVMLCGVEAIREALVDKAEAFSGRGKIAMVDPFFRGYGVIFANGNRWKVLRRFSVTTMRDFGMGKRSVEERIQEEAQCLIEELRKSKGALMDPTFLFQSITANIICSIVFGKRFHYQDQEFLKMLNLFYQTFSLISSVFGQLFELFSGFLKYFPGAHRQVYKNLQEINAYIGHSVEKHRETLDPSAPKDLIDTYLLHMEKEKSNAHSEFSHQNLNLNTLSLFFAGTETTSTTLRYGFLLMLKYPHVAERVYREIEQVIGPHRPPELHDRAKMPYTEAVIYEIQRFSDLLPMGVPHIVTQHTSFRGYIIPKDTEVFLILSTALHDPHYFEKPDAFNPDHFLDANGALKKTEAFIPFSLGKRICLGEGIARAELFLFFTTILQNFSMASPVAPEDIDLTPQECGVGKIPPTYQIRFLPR
# Cytochrome P450 2C9 = Cytochrome P450 2C9 (Homo sapiens, UniProt P11712); test: Inhibition of CYP2C9 in human liver microsomes using tolbutamide as substrate preincubated for 5 mins followed by NADPH-generating system addition and measured after 20 mins by LC-MS/MS analysis
# Cytochrome P450 2E1 = Cytochrome P450 2E1 (Homo sapiens, UniProt P05181); test: Inhibition of CYP2E1 in human liver microsomes using chlorzoxazone as substrate preincubated for 5 mins followed by NADPH-generating system addition and measured after 20 mins by LC-MS/MS analysis
# Cytochrome P450 2D6 = Cytochrome P450 2D6 (Homo sapiens, UniProt P10635); test: Inhibition of CYP2D6 in human liver microsomes using tolbutamide as substrate preincubated for 5 mins followed by NADPH-generating system addition and measured after 20 mins by LC-MS/MS analysis
# Cytochrome P450 2D6, sequence (P10635 whole entry): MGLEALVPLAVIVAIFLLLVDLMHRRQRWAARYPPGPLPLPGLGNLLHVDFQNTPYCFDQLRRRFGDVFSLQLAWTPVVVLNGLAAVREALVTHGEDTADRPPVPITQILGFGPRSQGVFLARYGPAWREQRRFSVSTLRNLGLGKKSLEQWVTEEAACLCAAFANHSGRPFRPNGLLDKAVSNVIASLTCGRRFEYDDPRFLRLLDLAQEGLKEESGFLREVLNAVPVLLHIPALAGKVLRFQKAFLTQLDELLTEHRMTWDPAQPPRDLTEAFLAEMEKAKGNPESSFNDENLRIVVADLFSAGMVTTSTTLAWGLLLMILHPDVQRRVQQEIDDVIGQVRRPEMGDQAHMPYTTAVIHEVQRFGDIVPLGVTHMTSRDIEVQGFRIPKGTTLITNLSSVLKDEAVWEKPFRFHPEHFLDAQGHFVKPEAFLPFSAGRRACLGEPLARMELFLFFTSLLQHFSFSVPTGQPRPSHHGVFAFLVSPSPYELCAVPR
# Cytochrome P450 2C9, sequence (P11712 whole entry): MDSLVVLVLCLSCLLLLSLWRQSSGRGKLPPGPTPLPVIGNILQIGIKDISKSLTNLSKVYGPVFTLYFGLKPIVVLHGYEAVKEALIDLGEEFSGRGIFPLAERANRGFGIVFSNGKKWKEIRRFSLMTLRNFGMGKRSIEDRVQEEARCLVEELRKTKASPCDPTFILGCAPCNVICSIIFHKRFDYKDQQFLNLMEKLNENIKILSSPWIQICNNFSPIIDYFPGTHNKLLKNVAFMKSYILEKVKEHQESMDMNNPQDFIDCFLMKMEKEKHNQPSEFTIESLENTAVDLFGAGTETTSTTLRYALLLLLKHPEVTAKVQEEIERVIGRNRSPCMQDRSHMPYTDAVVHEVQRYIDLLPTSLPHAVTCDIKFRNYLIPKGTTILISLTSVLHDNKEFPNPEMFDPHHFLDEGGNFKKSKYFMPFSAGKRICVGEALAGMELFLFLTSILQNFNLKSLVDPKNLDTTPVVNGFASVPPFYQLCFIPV
# Cytochrome P450 2E1, sequence (P05181 whole entry): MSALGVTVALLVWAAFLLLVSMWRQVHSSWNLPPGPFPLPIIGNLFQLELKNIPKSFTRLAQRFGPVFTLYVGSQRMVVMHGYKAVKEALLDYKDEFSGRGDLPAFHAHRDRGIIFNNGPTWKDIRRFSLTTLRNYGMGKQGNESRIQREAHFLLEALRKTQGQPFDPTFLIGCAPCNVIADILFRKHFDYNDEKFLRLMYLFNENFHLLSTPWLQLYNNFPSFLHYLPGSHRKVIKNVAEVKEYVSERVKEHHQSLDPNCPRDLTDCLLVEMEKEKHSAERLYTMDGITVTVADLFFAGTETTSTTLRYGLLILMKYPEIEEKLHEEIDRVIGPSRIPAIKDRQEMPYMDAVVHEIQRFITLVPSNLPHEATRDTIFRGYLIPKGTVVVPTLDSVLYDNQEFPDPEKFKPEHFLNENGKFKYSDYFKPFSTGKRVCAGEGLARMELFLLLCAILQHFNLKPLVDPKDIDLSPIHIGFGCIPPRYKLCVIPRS
Compound,IC50 (Cytochrome P450 1A2),IC50 (Cytochrome P450 2B6),IC50 (Cytochrome P450 2C9),IC50 (Cytochrome P450 2E1),IC50 (Cytochrome P450 2D6)
COc1ccccc1N1C(=O)CSC1c1cccc(C(=O)NCCc2ccc(Br)cc2)c1 (configuration not stated),> 50 µM,33.9 µM,5.35 µM,> 50 µM,–
COc1ccc(-c2nc(C)nn2-c2cccc(C(=O)NCCCCc3ccccc3)c2)cc1,–,29.4 µM,3.93 µM,> 50 µM,24.1 µM
COc1ccc(-n2nc(C)nc2-c2cccc(C(=O)NCCCCc3ccccc3)c2)cc1,16.9 µM,23.6 µM,3.38 µM,> 50 µM,–
